The whole screen tested about 310,000 compounds, of which about 14,000 (4.5%) showed an effect of 50% or more. Effects have a minus sign here. Some of the results follow.
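Further: peak tail current of the secondary pulse compared with the same well before compound.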

Chain of human ether-à-go-go-related gene (hERG) potassium channel (Q12809 whole entry, looked up): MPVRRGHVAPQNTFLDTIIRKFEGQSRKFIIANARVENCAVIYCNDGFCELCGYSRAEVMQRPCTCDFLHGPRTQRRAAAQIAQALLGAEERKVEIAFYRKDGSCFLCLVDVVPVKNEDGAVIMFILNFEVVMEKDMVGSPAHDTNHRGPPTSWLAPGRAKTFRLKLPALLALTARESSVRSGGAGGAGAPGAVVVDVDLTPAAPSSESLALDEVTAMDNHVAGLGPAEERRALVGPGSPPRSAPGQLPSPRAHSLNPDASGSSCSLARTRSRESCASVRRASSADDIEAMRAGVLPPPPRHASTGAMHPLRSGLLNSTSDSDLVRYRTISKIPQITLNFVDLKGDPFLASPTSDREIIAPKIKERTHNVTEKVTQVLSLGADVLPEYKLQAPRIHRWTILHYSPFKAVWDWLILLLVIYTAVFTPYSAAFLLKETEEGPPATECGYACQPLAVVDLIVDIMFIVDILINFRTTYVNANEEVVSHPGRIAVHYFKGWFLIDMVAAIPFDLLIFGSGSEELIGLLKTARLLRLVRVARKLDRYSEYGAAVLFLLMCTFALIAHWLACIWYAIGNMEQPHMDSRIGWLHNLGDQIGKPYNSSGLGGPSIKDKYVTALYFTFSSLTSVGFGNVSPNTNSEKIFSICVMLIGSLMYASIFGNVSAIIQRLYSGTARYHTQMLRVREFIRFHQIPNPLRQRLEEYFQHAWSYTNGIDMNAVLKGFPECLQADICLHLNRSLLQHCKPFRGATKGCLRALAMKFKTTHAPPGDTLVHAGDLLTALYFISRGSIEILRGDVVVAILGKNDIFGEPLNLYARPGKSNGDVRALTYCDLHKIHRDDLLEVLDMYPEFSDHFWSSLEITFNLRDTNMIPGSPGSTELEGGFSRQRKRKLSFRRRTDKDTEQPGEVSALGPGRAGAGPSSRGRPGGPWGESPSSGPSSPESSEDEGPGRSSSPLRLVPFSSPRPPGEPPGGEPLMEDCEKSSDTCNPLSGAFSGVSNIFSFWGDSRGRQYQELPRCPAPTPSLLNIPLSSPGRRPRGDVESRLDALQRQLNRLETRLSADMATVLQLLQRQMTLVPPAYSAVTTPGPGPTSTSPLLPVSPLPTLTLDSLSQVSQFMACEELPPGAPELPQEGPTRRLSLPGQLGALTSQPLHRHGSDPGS

This assay concerns the target human ether-à-go-go-related gene (hERG) potassium channel (human, UniProt Q12809). Description: primary screen, population patch clamp on CHO cells stably expressing hERG.
With `COc1cc(C(=O)N/N=C/c2ccc(OC(=O)c3ccccc3Cl)cc2)ccc1O`, the “hERG current change (%, negative = inhibition) at 10uM” value is -10.5%.

Turning to `CCC(=C(c1ccc(OC)cc1)c1ccc(OC)cc1)c1cn(CC(O)CN2CCN(C)CC2)c2ccccc12` (stereo not drawn), the “hERG current change (%, negative = inhibition) at 10uM” value was -6.39%. Next, `O=C(NCc1cn2ccccc2n1)C1CCC(=O)N(Cc2ccccc2F)C1` (stereo not drawn): 2.43%; `O=C(CSc1nnnn1C1CC1)N1CCN(c2ccc(O)cc2)CC1`: -3.87%. Next, `O=C(NC1CC1)C1=C[C@@H](C2CCCCC2)C[C@@H](OCc2ccc(CO)cc2)O1`: -15.9%; `Cc1cccc(NC(=S)N2CCN(S(=O)(=O)c3ccccc3)CC2)c1`: 5.35%; `COc1ccc(OC)c(CCNC(=O)CC2(CC3=NS(=O)(=O)c4ccccc4N3)CCCC2)c1`: -11.2%. As to `O=Cc1c(C(=O)O)n(Cc2ccc(F)cc2Cl)c2ccccc12`, the “hERG current change (%, negative = inhibition) at 10uM” value came out at 18%. The result for `COc1cc(C2CC(c3c(C)cc(C)[nH]c3=O)=NN2c2ccccc2F)cc(OC)c1OC` (stereo not drawn) reads -3.68%; that for `Fc1ccc(-n2[nH]nnc2=S)cc1N1CCCC1`, 13.4%; that for `CC1CC(C)CN(C(=O)C(Cc2ccccc2)NC(=O)c2ccccc2)C1` (stereo not drawn), -10%.

As to `COC(=O)C1=CN(c2cccc(C)c2)C=C(C(=O)OC)C1c1cc(OC)c(O)c([N+](=O)[O-])c1`, the “hERG current change (%, negative = inhibition) at 10uM” value is on record as -29.1%. The result for `Cc1cccc(NC(=S)N2CCOCC2)c1C` reads -3.76%; that for `CN(C)c1ccc(/C=N/c2cc(-c3ccccc3)nn2-c2ccccc2)cc1`, 5.79%.

For `CC(C)C(NCc1c(Cl)cccc1Cl)C(=O)O` (stereo not drawn), the “hERG current change (%, negative = inhibition) at 10uM” value worked out at 2.54%. The result for `NS(=O)(=O)c1ccc(CCNC(=O)CCC2COc3ccccc3O2)cc1` (stereo not drawn) reads -15.5%; that for `COc1ccc(CCC(C)NC(=O)Cc2ccc(OC)c(OC)c2)c(OC)c1` (stereo not drawn), 11.6%; that for `Cn1cccc1CC(=O)NNC(=S)Nc1ccc(Cl)cc1Cl`, 6.56%. For `c1ccc2c(c1)CCCC2NC1=NCCC1` (stereo not drawn), the “hERG current change (%, negative = inhibition) at 10uM” value was -2.53%. The result for `Cc1cccc(NC(=O)CNC(=O)c2cccs2)n1` reads 19.2%. Next, `CCN1CCN(C(=O)COc2ccc3c(c2)C(=O)CC2(CCN(C(C)=O)CC2)O3)CC1`: 20.5%; `COc1ccccc1NC(=O)C(C)Sc1nnc2ccccn12` (stereo not drawn): -3.27%. The result for `Cc1ccnc(N2C(=O)c3cccc4c([N+](=O)[O-])ccc(c34)C2=O)c1` reads 4.06%; that for `Cc1cc(OCC(=O)OCC(=O)NC2CCCCCC2)ccc1Cl`, 12.3%. As for `Cc1ccc(NC2c3ncccc3C(=O)N2Cc2cccs2)cc1` (stereo not drawn), the “hERG current change (%, negative = inhibition) at 10uM” value is reported as -8.04%. `Cc1ccc2nc(NC(=O)C3CCN(S(=O)(=O)c4cc([N+](=O)[O-])ccc4Cl)CC3)sc2c1`: the “hERG current change (%, negative = inhibition) at 10uM” value is recorded as -5.19%. Next, `Cc1n[nH]c(=O)c2c(NC(=O)CSc3ccccc3Cl)oc(C)c12`: -25.5%; `CCOC(=O)c1nc(-c2ccc(OC)c(OC)c2)cnc1C#N`: 13.9%.

As for `COc1ccccc1N(C(=O)c1snc(C(N)=O)c1N)C(C(=O)NC1CCCC1)c1ccc(N(C)C)cc1` (stereo not drawn), the “hERG current change (%, negative = inhibition) at 10uM” value is 5.58%. The result for `O=C(CSc1ccc(Cl)cc1)Nc1cccc(-c2nc3ncccc3o2)c1` reads 8.88%; that for `CS(=O)(=O)N1CCN(C(=O)c2ccc(F)cc2)CC1`, -37.1%. The result for `c1ccc(Nc2nc(-c3cccs3)cs2)nc1` reads 1.74%; that for `Cc1cc(C)nc(OC(=O)c2ccc(Cl)cc2Cl)n1`, 9.65%. In the case of `CCCCn1nnnc1SCC(=O)N1CCOCC1`, the “hERG current change (%, negative = inhibition) at 10uM” value was determined as 4.31%. Next, `COc1cc(C)c(Cl)cc1S(=O)(=O)NCc1ccccn1`: -4.13%; `COc1cccc(NC(=O)Cn2nnc(C(=O)NCCc3ccccc3)c2N)c1`: 11.6%; `COC(=O)c1ccc(-n2cncn2)c([N+](=O)[O-])c1`: 12%.

On to `CCCOc1ccc(NCC(=O)Nc2ccc(C)cc2C)cc1`, for which the “hERG current change (%, negative = inhibition) at 10uM” value is given as 33.3%.

For `Cc1ccc(NC(=O)Cn2c(CCC(=O)O)ccc2-c2ccc(Cl)cc2)cc1`, the “hERG current change (%, negative = inhibition) at 10uM” value is listed as 10.4%.

As for `COc1ccc(OC)c(N(CC(=O)Nc2cccnc2)S(C)(=O)=O)c1`, the “hERG current change (%, negative = inhibition) at 10uM” value stood at 14.3%. `COc1cccc(CC(NC(C)=O)C(=O)NC2CCN(c3c(Cc4ccccc4)c(C)nc4ncnn34)CC2)c1OC` (stereo not drawn): the “hERG current change (%, negative = inhibition) at 10uM” value is on record as 0.736%.

Regarding `COc1ccc(F)cc1S(=O)(=O)NC(Cc1ccccc1)C(N)=O` (stereo not drawn), the “hERG current change (%, negative = inhibition) at 10uM” value was determined as 12.4%. For the compound `O=C(Cc1ccccc1)Nc1ccccc1C(=O)O`, the “hERG current change (%, negative = inhibition) at 10uM” value came to 8.27%. Next, `Cc1ccc(S(=O)(=O)Nc2ccccc2C(=O)Nc2nc(-c3ccc(F)cc3)cs2)cc1`: 9.22%. Next, `C=CCOc1ccc(C2C(C(=O)c3ccco3)=C(O)C(=O)N2Cc2cccnc2)cc1` (stereo not drawn): 5.62%; `CN1C=CC=C/C1=C1\SC(=S)N(C2CCCCC2)C1=O`: -52.3%; `CCOC(=O)Cc1csc(NC(=O)CCNS(=O)(=O)c2ccc3c(c2)CCC(=O)N3)n1`: 9.62%. The result for `CC(C)OC(=O)Cn1c(=O)sc2ccccc21` reads -5.59%; that for `COC(=O)C1C(=O)c2c([nH]c(C(=O)OCCOC(C)C)c2C)CC1C` (stereo not drawn), -4.57%. With `CCc1ccc(S(=O)(=O)NCC(O)COc2ccc(OC)cc2)cc1` (stereo not drawn), the “hERG current change (%, negative = inhibition) at 10uM” value is listed as -15.2%.

For the compound `Cc1cc(NC(=O)CSc2nncc(=O)n2N)no1`, the “hERG current change (%, negative = inhibition) at 10uM” value came to 1.99%. With `Cc1ccc(S(=O)(=O)N2CCN(C(=O)N(C)C)CC2)cc1C`, the “hERG current change (%, negative = inhibition) at 10uM” value turned out to be 5.33%. Next, `Nc1nc(SCC(=O)Nc2ccc3c(c2)CCC3)n[nH]1`: 12.8%; `O=[N+]([O-])c1ccccc1CCl`: 11.3%.

Take `COc1cc(/C=C/C(=O)NCCN2CCOCC2)cc(OC)c1OC`: the “hERG current change (%, negative = inhibition) at 10uM” value is recorded as 11.4%. Consider `COc1cccc2cc(C(=O)N3CCN(c4ccccc4F)CC3)c(=O)oc12`, for which the “hERG current change (%, negative = inhibition) at 10uM” value is recorded as -12.3%. Consider `COc1cc2nc(CN(C)Cc3ccc(C(C)(C)C)cc3)[nH]c(=O)c2cc1OC`, for which the “hERG current change (%, negative = inhibition) at 10uM” value is given as -12.6%.

In the case of `O=[N+]([O-])c1ccc(NC(=S)N/C(=N/CS(=O)(=O)c2ccccc2)c2ccccc2)cc1`, the “hERG current change (%, negative = inhibition) at 10uM” value is reported as -25.1%. The result for `CCOc1ccc(NC(=S)Nc2cccc3cnccc23)cc1` reads -25.6%; that for `COc1ccc(NS(=O)(=O)c2ccc3c(c2)n(C)c(=O)n3C)cc1`, 4.94%; that for `CCOc1ccc(N(CC(=O)OC)S(=O)(=O)c2ccc(OC)c(OC)c2)cc1`, -35.1%. The result for `CCc1ccc(OCC(=O)NC2CCCCC2)c(Br)c1` reads 18.6%; that for `CC(=O)Nc1ccc(NC(=O)COC(=O)/C(=C/c2ccccc2)n2nnnc2C)cc1`, 13%; that for `O=C(OCc1ccc(Cl)cc1)c1cccnc1Cl`, 2.37%. Next, `COc1ccc(CCC2(C)NC(=O)N(C(C)C(=O)N3c4ccccc4CC3C)C2=O)cc1` (stereo not drawn): -44.8%; `COc1ccccc1N1CCN(C(=O)C2CC(=O)N(c3ccccc3)C2)CC1` (stereo not drawn): -19.9%. Regarding `CC(=O)NC(=S)Nc1ccc(S(=O)(=O)Nc2ncccn2)cc1`, the “hERG current change (%, negative = inhibition) at 10uM” value is 14.4%. As for `CC(C)NC(=S)N1CCN(S(C)(=O)=O)CC1`, the “hERG current change (%, negative = inhibition) at 10uM” value is 6.17%.

As for `CCCCSCCCNC(=O)c1cn(CC)c2ccc(S(=O)(=O)N3CCOCC3)cc2c1=O`, the “hERG current change (%, negative = inhibition) at 10uM” value was -44.9%. `COCCSc1nnc(NC(=O)CCS(=O)(=O)Cc2ccccc2)s1`: the “hERG current change (%, negative = inhibition) at 10uM” value is reported as 9.51%. With `Cc1ccc(OCC(=O)N2CCCCC2)c(Br)c1`, the “hERG current change (%, negative = inhibition) at 10uM” value is -17.7%.

On to `COC(=O)c1scc(S(=O)(=O)C(C)(C)C)c1-n1cccc1`, for which the “hERG current change (%, negative = inhibition) at 10uM” value turned out to be 11%. Next, `COc1ccc(N/C(=C/[N+](=O)[O-])SC)cc1`: 13.2%; `CCn1nnnc1-c1ccc(OC)c(S(=O)(=O)Nc2ccc(S(N)(=O)=O)cc2)c1`: 26%. For `O=C(NC(=O)N1CCC2(CC1)OCCO2)c1ccc(Cl)cc1`, the “hERG current change (%, negative = inhibition) at 10uM” value was found to be 20.2%. Next, `CC(C)(O)CCC(C)(C)O`: 21.1%; `COc1ccccc1-c1cc(=O)c2c(O)ccc([N+](=O)[O-])c2o1`: 17.6%. The result for `C=CCn1c(SCC(=O)NCc2ccccc2)nnc1C1CCCCC1` reads -3.55%; that for `Cc1ccc(S(=O)(=O)NCCC(=O)NNC(=O)c2ccccc2O)cc1C`, -21.5%. On to `CCOC(=O)c1c(CC(C)C)csc1NC(=O)C(C)C`, for which the “hERG current change (%, negative = inhibition) at 10uM” value is given as -2.51%. The result for `NC(=O)c1cccc(NC(=O)CCCCC(=O)Nc2cccc(C(N)=O)c2)c1` reads 18%; that for `O=C(CC12CC3CC(CC(C3)C1)C2)N1CCCOC1`, -3.81%; that for `O=C(CSc1nc(-c2ccccc2)cc(=O)[nH]1)Nc1ccc(Br)cc1`, 21.5%.

For the compound `Cc1csc(=O)n1CCC(=O)OCC(=O)NNC(=O)c1ccc(Br)cc1`, the “hERG current change (%, negative = inhibition) at 10uM” value is -11.1%. For `CCC(=O)N1CC23C=CC(CC2CC12CCCCC2)O3` (stereo not drawn), the “hERG current change (%, negative = inhibition) at 10uM” value is on record as -4.2%. Next, `C/C(=N\Nc1nnc(C)c(=O)[nH]1)C(=O)O`: 13.2%; `Cc1noc(C)c1COC(=O)c1csc2c1CCC(C)C2` (stereo not drawn): 4.48%; `CC(=O)Nc1cccc(C(=O)N2CCN(Cc3ccccc3)CC2)c1`: 17.6%. Take `CCCc1nnc(SCC(=O)Nc2ccc(C(=O)OCC)cc2)o1`: the “hERG current change (%, negative = inhibition) at 10uM” value amounted to 7.85%. On to `COc1ccc(NC(=O)Nc2cccs2)cc1Cl`, for which the “hERG current change (%, negative = inhibition) at 10uM” value came out at 6.01%.
